Test results reported in the supplement of paper PMC9174493.
The other results are listed elsewhere or left out. Single values of this set are uncertain. Values with irradiation are relative to irradiated vehicle.

Columns and labels:
[1] = tested on: A549-Dual; assay: NF-kB reporter (SEAP) activity, viability-corrected, relative to vehicle (fold change vs vehicle); higher = more activation of STING-IRF / NF-kB immune response reporter; settings: 10 µM
[2] = tested on: A549-Dual; assay: ISRE reporter (Lucia luciferase) activity, viability-corrected, relative to vehicle (fold change vs vehicle); higher = more activation of STING-IRF / NF-kB immune response reporter; settings: 10 µM
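Throughout, for NF-kB reporter (SEAP) activity, viability-corrected, relative to vehicle: viability correction based on the alamar blue assay, with concentrations leaving 10% survival or less dropped.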

Compound	NF-kB reporter ([1]; irradiation: 8 Gy/4 fr)	NF-kB reporter ([1]; irradiation: none)	ISRE reporter ([2]; irradiation: 8 Gy/4 fr)	ISRE reporter ([2]; irradiation: none)
Cc1cccc(C)c1N(CC(=O)Nc1ccc(-c2ncon2)cc1)C(=O)C1CCS(=O)(=O)CC1 [Amenamevir]	0.847	0.851	0.747	0.648
CCC(NC(C)C)C(O)c1ccc(O)c2[nH]c(=O)ccc12.Cl (stereo not drawn) [Procaterol HCl]	0.699	0.86	0.651	0.646
O=c1[nH]cnc2nc[nH]c12 [Hypoxanthine]	1.17	0.612	1.13	0.58
CNC1C(OC2OC(CO)C(N)C(O)C2O)OC2CC(N)C(OC3C(N)CC(N)C(O)C3O)OC2C1O.O=S(=O)(O)O (stereo not drawn) [Apramycin Sulfate]	0.908	1.47	0.779	1.55
CC(C)=CCCC(C)(OC1OC(CO)C(O)C(O)C1O)C1CCC2(C)C1C(O)CC1C3(C)CCC(O)C(C)(C)C3C(OC3OC(CO)C(O)C(O)C3OC3OC(C)C(O)C(O)C3O)CC12C (stereo not drawn) [Ginsenoside Re]	1.18	0.848	0.936	0.58
COCCCN1CCC(NC(=O)c2cc(Cl)c(N)c3c2OCC3)CC1 [Prucalopride]	0.611	1	0.604	0.619
Cl.N=C(N)NC(=O)Cc1c(Cl)cccc1Cl [Guanfacine Hydrochloride]	0.798	1.09	0.584	0.634
Cc1cn(C2OC(CO)C(O)C2F)c(=O)[nH]c1=O (stereo not drawn) [Clevudine]	0.734	1.03	0.76	0.789
CCn1c(=O)c2c(nc(/C=C/c3ccc(OC)c(OC)c3)n2C)n(CC)c1=O [Istradefylline]	0.729	0.837	0.623	0.637
C=C1C(CO)C(O)CC1n1cnc2c(=O)nc(N)[nH]c21 (stereo not drawn) [Entecavir]	0.728	0.865	0.568	0.603
NS(=O)(=O)c1cc(C2(O)NC(=O)c3ccccc32)ccc1Cl (stereo not drawn) [Chlorthalidone]	1.24	1.3	1.1	1.01
CNC1C(O)C(NC)C2OC3(O)C(=O)CC(C)OC3OC2C1O.Cl.Cl (stereo not drawn) [Spectinomycin 2HCl]	0.831	1.03	0.841	0.875
CCc1oc2ccccc2c1C(=O)c1cc(Br)c(O)c(Br)c1 [Benzbromarone]	0.571	0.847	0.525	0.677
CCc1cc2c(cc1CC)CC(NCC(O)c1ccc(O)c3[nH]c(=O)ccc13)C2.O=C(O)/C=C\C(=O)O (stereo not drawn) [Indacaterol Maleate]	0.647	1.1	0.778	0.99
COC(=O)Nc1nc2ccc(S(=O)c3ccccc3)cc2[nH]1 (stereo not drawn) [Oxfendazole]	0.794	1.68	0.7	2.24
CN1CC2c3ccccc3Oc3ccc(Cl)cc3C2C1.O=C(O)/C=C\C(=O)O (stereo not drawn) [Asenapine maleate]	0.597	0.94	0.934	1.21
CCOc1ccc(Cc2cc(C34OCC(CO)(O3)C(O)C(O)C4O)ccc2Cl)cc1 (stereo not drawn) [Ertugliflozin]	0.817	0.79	0.873	0.873
Cc1ccccc1C(=O)O [o-Toluic acid]	1.37	0.69	1.51	0.778
OCC1OC(OC2C(CO)OC(O)C(O)C2O)C(O)C(O)C1O [D-(+)-Cellobiose]	0.751	0.756	0.788	0.688
CCCOC(=O)c1cc(O)c(O)c(O)c1 [Propyl gallate]	0.394	0.527	0.596	0.538
Cc1cccc(C)c1NC(=O)c1cc(S(N)(=O)=O)c(Cl)cc1O [Xipamide]	0.835	0.846	1.05	0.764
O=CC(O)C(O)C(OC1OC(CO)C(O)C(O)C1O)C(O)CO (stereo not drawn) [Maltose]	1.2	1.06	1.04	0.768
